± gives the standard deviation of the averaged measurements. The list shows a part of the results.
Test system: PfAP2-G AP2 domain (GST-tagged)
Experiment: gcPBM binding intensity (ln(normalized median fluorescence intensity)); higher = stronger DNA binding
How it was run: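 An Agilent 4 × 180k array carrying primer-extended double-stranded 36-bp intergenic genomic probes and negative controls received GST-tagged P. falciparum DNA-binding domains expressed in E. coli, about 25 μg on average, for 1 h. The binding buffer contained 1× PBS, 1% milk, 0.2 mg/ml BSA, 0.5% salmon testes DNA and 0.03% Triton X-100. Binding intensity is the top Masliner-normalised natural-log median intensity across replicate spots of either probe orientation, read after Alexa488 anti-GST antibody staining and a 488 nm scan.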

| Sequence | gcPBM binding intensity (ln) |
| --- | --- |
| TATATTTACAATAAAACGTTATTTTTTGTTATTTTC [CACACA_negctrl_site612] | 9.55 ± 0.15 |
| AATCTAATATAATGCACACATAAAAAAAAAATCAAA [CACACA_site2714] | 10.2 ± 0.3 |
| ATTTCGAATATTAAGTGTACAATATAAATATATAAA [XGTACX_site6674] | 11.3 ± 0.75 |
| TTATATGAATTTTAGATTTATAATACAAGAATATTC [CACACA_negctrl_site70] | 9.665 ± 0.007 |
| ATAATTTGTGGACACACACACACACCGACATATATA [CACACA_site8718] | 11.5 ± 1 |
| TTATTCACTTCTTTTTAAAAAAAAAAAAAAAAAAAA [CACACA_negctrl_site223] | 9.8 ± 0.48 |
| TTGTTAATGGTACGAACACACATATAAAGATGCATA [CACACA_site2044] | 10.5 ± 0.34 |
| AAAAAAAAAAAAAAAAGTACAAATAAAAAAAAAATA [XGTACX_site4814] | 11.4 ± 0.85 |
| ATTAAATACATTAACACACACACAAATATGTACATA [CACACA_site7372] | 11.5 ± 0.83 |
| ATATTATATAATATACGTACATATATTATGCATAAA [XGTACX_site7895] | 11.5 ± 0.98 |
| TACGTAGCCACACTAACACACACAAATATGCACAAT [CACACA_site8942] | 10.3 ± 0.24 |
| TTACTTAAGAAACACACACACAAAAAAAAAAAAAAA [CACACA_site946] | 9.91 ± 0.54 |
| ATCATAATCATAAAAAGTACAAACGATAAAATAAAT [XGTACX_site3832] | 11.2 ± 0.82 |
| TATGTAAAAAATTTAACACACACATATATATATATA [CACACA_site8829] | 10.1 ± 0.53 |
| TGTTATTTTAAAAAAAAAATTATTAACTTAAAAAAA [CACACA_negctrl_site1641] | 9.62 ± 0.071 |
| TTTTTTTCTGTGAGTGCATGTAATAAAATAAATTTA [TGCATGCA_site276] | 10.2 ± 0.26 |
| CAACATATATTAATATGTACATATATATAGATATAT [XGTACX_site4107] | 11.2 ± 0.58 |
| TATTTATAATAGTGTACACAATTATAAACTGAATAT [CACACA_site6041] | 11.7 ± 0.89 |
| TATTATTGTCTTTCAAAAAAAAAAAAAAAAAAAAAA [CACACA_negctrl_site1242] | 9.76 ± 0.7 |
| TATTATTCATAATTTATCTTTTAAATTAAATCACAA [GTGCAC_negctrl_site288] | 9.57 ± 0.085 |
| CATACTCACCAACACACACACACACCCATATAGAAT [CACACA_site592] | 10.3 ± 0.36 |
| TATATATATACTTAATGTACATATATATATATATAT [XGTACX_site3102] | 11.1 ± 0.79 |

| Sequence | gcPBM binding intensity (ln) |
| --- | --- |
| AACAAACACAGACACACACACACACCCAAATGATTA [CACACA_site2431] | 10.4 ± 0.36 |
| ATAATATAACACAAATGTACAAAAAATAAATAAATA [XGTACX_site385] | 10.7 ± 0.4 |
| CTTTTTGAAATATTAACACACATTTTGTTAATTAAT [CACACA_site4046] | 9.72 ± 0.085 |
| CACAGATAAATTAACACACACACACCCATATATATA [CACACA_site3960] | 10 ± 0.14 |
| CTATATTATAAATATACACACATATCTTAAGTATAA [CACACA_site3096] | 10.2 ± 0.23 |
| TTGATGTATACAATGTAGATTATTTAATATTTCAAC [CACACA_negctrl_site73] | 9.875 ± 0.007 |
| ATTAGTATTAGATGATGTACATTTATATTGAAATAT [XGTACX_site8537] | 11.1 ± 0.56 |
| TTTTTTTTTTTTTTCACACACTAATAATATTATCAT [CACACA_site4417] | 9.71 ± 0.22 |
| ATAAATTTTTAAAAATATGAATTATGTAATTTGTGA [CACACA_negctrl_site1621] | 9.9 ± 0.071 |
| AAAAGGAAGATATATACACACATACAAATATATATA [CACACA_site5236] | 9.765 ± 0.064 |
| CTATTTGGGGGAAGAGTGCATGACATGAATATAAAA | 10.8 ± 0.61 |
| TGTTATTTAAATAATTCTTTTTAAAAGATGAATTAT [CACACA_negctrl_site1226] | 9.85 ± 0.28 |
| ATGGTCTGTTAAAGATGTACTTTTTAAAAATAAACG [XGTACX_site2583] | 11.4 ± 0.88 |
| ATAAAAATACAGTTAACACACATGTGTATTTATATG [CACACA_site7727] | 10.4 ± 0.26 |
| GAAAACGTTTGAAGTTGTACATATGTATAAAAAGAA [XGTACX_site2304] | 11.3 ± 0.89 |
| AATAGGAAAGATTTTGCATGTGATATAAGTAATTTT [TGCATGCA_site657] | 9.87 |
| TATAATATTTATATAACACACATATAGATTTATTTA [CACACA_site6269] | 9.79 ± 0.028 |
| CATATAATAAATAGATGTACAGACTATATATATATA [XGTACX_site6575] | 11.1 ± 0.61 |
| TTTATATGATACACACGTACATATACACATATACAC [XGTACX_site8123] | 11.3 ± 0.67 |
| TATATATATATTTTTGCACACATTTTTTAAGGTACA [CACACA_site2145] | 10.8 ± 0.45 |
| TATATTAAAGGGGTTTCACACACATGTATAATTAAT [CACACA_site7950] | 10.11 ± 0.092 |
| TATTATTTAATCAAATGTACATAGAAAATGTATGTA [XGTACX_site4433] | 10.9 ± 0.55 |

| Sequence | gcPBM binding intensity (ln) |
| --- | --- |
| ATGTAAAATTAATATTGTACTTTTCCATCATGATAC [XGTACX_site2669] | 11.3 ± 0.79 |
| AAAAAGAAGAATAATACACACAAATTATTTTATATA [CACACA_site1919] | 9.84 ± 0.057 |
| TATTCCAAAAATGTGTGTACATAAATACAATATTAT [XGTACX_site2653] | 11.4 ± 0.89 |
| TATAATAAATGGACGGTGCGACATGACCATATGTGT [GTGCAC_site9476] | 11 ± 0.53 |
| TTGTTAATAAAAATATTGGAAAGTTTATAAAATTTT [CACACA_negctrl_site1487] | 9.775 ± 0.092 |
| TTATTTTCTTTTTCTTGTACACACATAATATGGATG [XGTACX_site1481] | 11.3 ± 0.68 |
| ATAATATATATACAAACACACAATTGCGTCCACATT [CACACA_site8515] | 11.5 ± 0.86 |
| GACACCCATAAATATACACACGCACAACACAAAATA [CACACA_site8944] | 10.4 ± 0.29 |
| CTTACCAAAAAACACACACACACAAAATATATAAAT [CACACA_site1870] | 10.1 ± 0.17 |
| TTATTTTTTAGTAGTACACACTTTTTGTACCTTTTA [CACACA_site4503] | 11.8 ± 1.1 |
| AATAAAAAAAAAAAAAAAAAAAAAAAGACACTAAAA [CACACA_negctrl_site1075] | 9.875 ± 0.035 |
| CTAAAAGAACATGTGTGTACTTATGTTCTCTTTTTT [XGTACX_site5983] | 11.4 ± 0.74 |
| ATGAAATTTTCATATTGTACTATTAAAAATATATTT [XGTACX_site1989] | 11 ± 0.63 |
| CATTGACCATTAATTTGTACACAAGGGGAAATGAGG [XGTACX_site1756] | 11.5 ± 0.97 |
| TATATATATATATATATATATATATATATATATATT [CACACA_negctrl_site1440] | 9.73 ± 0.62 |
| TCTTTCTGCTCTTATACACACAAATAAAGATTTTTT [CACACA_site2700] | 10.2 |
| TTTGCTTCGATATATTCACACATTTTTTTTCTTATT [CACACA_site4499] | 9.85 ± 0.23 |
| AAATGTAATAAATATACACACACAAATATATATATA [CACACA_site8754] | 9.71 ± 0.071 |
| AATTTCATTTTTAGAAGTACATTTATATTAAAAATC [XGTACX_site2888] | 11.2 ± 0.95 |
| TGTAGATTTTGTAACACACACATATAAATACAGATA [CACACA_site5343] | 10.2 ± 0.16 |
| TAAGGGATATGTATATGTACATACAAATATATATAA [XGTACX_site2892] | 11.1 ± 0.66 |
| ATATAAATAAAAAAAAGTACATAATATATAAAAATA [XGTACX_site3065] | 11.5 ± 1 |

| Sequence | gcPBM binding intensity (ln) |
| --- | --- |
| CTTTTACGTTTAGGATGTACATTTAAAAAAAAAGAA [XGTACX_site8032] | 11.2 ± 0.78 |
| TAAGATCCTTAAAACGCATGCAGTATTTTTATTTCT [TGCATGCA_site532] | 9.56 ± 0.22 |
| TAGCCAAAAGGATATGCACACACACCCACATATATA [CACACA_site8684] | 10.2 ± 0.26 |
| CATATAATTATTTTCACACATATAACTACATCTATA [CACACA_site5915] | 9.935 ± 0.064 |
| TTAGCAGGACGTTTGGTGCACGTACTGTTTTTCTTT [GTGCAC_site9856] | 11.1 ± 0.67 |
| ATTATAAGAATTAAAAGAAACAAAATTTTAATTATA [CACACA_negctrl_site610] | 9.65 ± 0.13 |
| AATAAATATTAAATGACAAAAAAAAAAAAAAAAGGG [XGTACX_negctrl_site15] | 10.4 ± 0.41 |
| TATAATCCATAAGAAGCACACACATATATATATATT [CACACA_site8394] | 9.93 ± 0.16 |
| TTAAGATGCATAAATACATGCAAAGTAAATAATTCT [TGCATGCA_site517] | 9.88 ± 0.014 |
| TTTATTCTCCACACCCGTACACATTTTTTTTGCATA [XGTACX_site5615] | 11.4 ± 0.84 |
| AAAAAAAAAAAAAACACACACACACGCAGATATATA [CACACA_site6672] | 10.2 ± 0.21 |
| ATTATAGACAACTCTTTTTCTAAACTATTTTATTTT [CACACA_negctrl_site1754] | 9.985 ± 0.021 |
| CATAATATTTGTGAAAGTACTTATTTTACAATAGGG [XGTACX_site5004] | 11.3 ± 0.75 |
| AAATAAAGAAATATATGTACATATATATATATATAT [XGTACX_site5131] | 11.3 ± 0.43 |
| TTTCTTAAAATATAAAGTACTAAAATGAAAATATAT [XGTACX_site2173] | 11.1 ± 0.75 |
| AAAAAATATAAAACGAGTACATATATAATAAGCAAA [XGTACX_site1360] | 11.4 ± 0.82 |
| CTTCTTTTGTGATAAAGTACAAATATTTTGAAATAT [XGTACX_site1156] | 10.9 ± 0.59 |
| TTTTCTATAAGATTTGCACACAACTTATTCTATTAA [CACACA_site3752] | 10 ± 0.11 |
| ATAAATAAATAAATAAATATATATATGAAATAATGT [TGCATGCA_negctrl_site12] | 9.725 ± 0.064 |
| ATTTTTTTTATGTATTATGCTTTTATATCCTTCATA [CACACA_negctrl_site1244] | 9.91 ± 0.042 |
| ATTTCTTTTACATTTACATGCAATGCTCTATAGATA [TGCATGCA_site62] | 9.955 ± 0.035 |

— the supplement of paper PMC11417369
